Measurements published in the GPR68 mutational scans of Howard et al. (2025).

B1: GPR68, Q15743 (parent)
chain: MGNITADNSSMSCTIDHTIHQTLAPVVYVTVLVVGFPANCLSLYFGYLQIKARNELGVYLCNLTVADLFYICSLPFWLQYVLQHDNWSHGDLSCQVCGILLYENIYISVGFLCCISVDRYLAVAHPFRFHQFRTLKAAVGVSVVIWAKELLTSIYFLMHEEVIEDENQHRVCFEHYPIQAWQRAINYYRFLVGFLFPICLLLASYQGILRAVRRSHGTQKSRKDQIQRLVLSTVVIFLACFLPYHVLLLVRSVWEASCDFAKGVFNAYHFSLLLTSFNCVADPVLYCFVSETTHRDLARLRGACLAFLTCSRTGRAREAYPLGAPEASGKSGAQGEEPELLTKLHPAFQTPNSPGSGGFPTGRLA

Experiments:
[1] = variants of: B1; assay: cAMP reporter score (Enrich2 score, wild type = 0); higher = more signal; HEK293T, FACS bins
[2] = variants of: B1; assay: surface expression score (Enrich2 score, wild type = 0); higher = more signal; HEK293T, FACS bins

Variant	cAMP reporter score ([1]; pH 5.5)	cAMP reporter score ([1]; pH 6, modulator: ogerin)	cAMP reporter score ([1]; pH 6.5, modulator: ogerin)	surface expression score [2]	cAMP reporter score ([1]; pH 6)
V284H	-1.19	-1.01	-1.83	-1.61	
V284I	1.23	2.4	0.382	1.59	1.18
V284K	-1.66	-1.92	-1.56	-1.97	-1.09
V284L	-0.668	-0.683	-1.39	-0.564	-0.91
V284M	-0.085	-0.116	-0.297	-0.268	-0.676
V284N	-1.2	-1.18	-1	-2.47	-0.868
V284P	-0.104	-1.12	-0.729	-1.81	0.211
V284Q	-1.93	-1.51	-2.08	-2.45	
V284S	-1.1	-1.13	-1.14	-1.58	-0.585
V284T	-0.765	-0.895	-1.35	-1.33	-0.544
V284W	-0.121	0.095	0.372	0.662	0.235
V284Y	1.24	1.03	0.259	-1.4	0.001
V284_L285insG	-1	-0.285	-0.246		
L285_Y286del	-1.76	-1.54	-1.2	-2.19	-0.588
L285_Y286insGSG	-2.25	-2.12	-1.35	-1.5	-1.7
Y286_C287insGSG	-1.44	-1.55	-0.83	-1.55	-0.851
Y286_F288del	-1.53	-1.61	-0.917	-2.18	-0.971
C287_F288insGS	-1.32	-1.24	-1.49	-1.7	
C287_F288insGSG	-1.4	-1.2	-0.844	-2.42	-0.525
F288_S290del	-1.15	-1	-0.296	-2.85	-1.22
F288_V289insG	-0.786	-0.772	-1.33		-0.467
F288_V289insGSG	-0.624	-1.43	-1.19	-1.76	-0.626

Variant	cAMP reporter score ([1]; pH 5.5)	cAMP reporter score ([1]; pH 6, modulator: ogerin)	cAMP reporter score ([1]; pH 6.5, modulator: ogerin)	surface expression score [2]	cAMP reporter score ([1]; pH 6)
V289del	-1.21	-1.98	-2.88	-0.409	-0.719
S290A	-0.042		-0.319	-1.01	-1.13
S290C	1.2	0.375	0.75	-0.432	0.414
S290D	-1.39	-2.07	-1.21	0.599	-0.132
S290E	-0.735	-0.604	-1.45	0.097	-0.921
S290F	-0.713	-1.03	-0.888	-0.572	-0.535
S290G	-0.884	-1.35	-1.38	-0.026	-0.928
S290H	2.24	0.295	0.347	2.37	0.121
S290I	-1.08	-0.271	-0.32	-0.365	-0.809
S290K	-1.17	-1.08	-1.23	-0.916	-0.57
S290L	-1.41	-0.697	-0.335	-0.611	
S290M	-0.834	-2.15	-0.916	-1.83	
S290N	-0.36	-0.406	-1.2	-0.399	-2.35
S290P	-0.038	-0.34	-0.841	-0.369	-0.024
S290Q	-0.881	-1.49	-0.491	-0.712	-1.15
S290R	-0.731	-0.709	-0.545	-1.33	-0.797
S290T	-0.547	-0.369	-0.903	0.343	-0.473
S290V	0.184		-0.83	-0.692	-1.27
S290W	-1.03	-0.272	-0.708	-0.9	
S290Y	-0.607	-1.05	-1.8	-0.563	
S290_E291del	-1.68	-0.985	-0.985	-0.09	-0.791
E291A	0.53	0.739	-0.192	-0.33	0.924

Variant	cAMP reporter score ([1]; pH 5.5)	cAMP reporter score ([1]; pH 6, modulator: ogerin)	cAMP reporter score ([1]; pH 6.5, modulator: ogerin)	surface expression score [2]	cAMP reporter score ([1]; pH 6)
E291C	1.42	1.1	-0.16	-0.359	0.439
E291D	0.425	0.346	-0.249	0.927	-1.26
E291F	-0.923	-0.846	-1.39	-2.07	
E291G	-0.13	-0.633	-0.784	-0.524	-0.097
E291H	-0.284	-0.366	-1.14	-0.591	-0.867
E291I	-0.036		-1.37	-2.24	
E291K	-0.054	0.066	0.202		
E291L	0.26	-0.118	-0.806	-2.17	0.277
E291M	0.592	-0.056	-0.62	-1.6	-0.476
E291N	0.131	-0.167	-0.544	0.145	-0.951
E291P	-0.247	-0.451	0.183	0.223	
E291Q	1.07	0.488	1.63	0.121	
E291R	2	-0.246	-0.518	-0.425	
E291S	-0.083	-0.272	0.188	-0.247	0.317
E291T	-0.721	-0.718	-1.32	-0.97	-1.29
E291V	0.963	0.653	0.933		
E291W	0.367	0.291	-0.604	-1.73	0.445
E291Y	-0.732	-1.04	0.458	-1.66	-1.97
E291_T292del	-1.46	-2.07	-1.38	-0.997	-2.04
E291_T292insGSG	-1.6	-0.921	-0.171	0.391	0.427

Scores with a large standard error are left out. The source holds two more conditions with little spread; they are left out. Names with del lack the residues named; names with ins carry added residues between the positions named. For some of these results: The data file names ogerin without a concentration.
